# In PubChem BioAssay AID686979 (National Center for Advancing Translational Sciences (NCATS), 2013):
# About 50,000 (12%) of roughly 420,000 compounds were called active. Inconclusive results, whose numbers are uncertain, are shown with a selection of clear calls. The call rests on the fitted dose curve; in most records, active means well fitted inhibition curve with a large enough effect; inconclusive means small, poorly fitted or top-dose-only effect; inactive means flat fitted curve, though single readings scatter. Potencies of inconclusive entries are left out as doubtful fits.
# Test: qHTS for Inhibitors of human tyrosyl-DNA phosphodiesterase 1 (TDP1): qHTS in cells in presence of CPT; further: nearly all actives have a fitted effect of over 55% in size
# Conditions: chicken DT40 Tdp1-/-;hTDP1 cells + 20 nM CPT, ATP luminescence, 48 h; activity change, negative = growth inhibition: at 46.2 µM (top of the series) unless noted
# In short: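 Chicken DT40 Tdp1-/- cells stably complemented with human TDP1 were seeded at 400 cells/well in medium containing 20 nM camptothecin, exposed to pin-transferred compounds, and grown at 37 °C for at least 48 hr. Viability was read as ATP luminescence.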
# On the % scale 0 is the no-effect control and ±100 the full control effect; potency means the concentration at half of the fitted maximal effect; tags describe the fitted curve by direction and shape.
Compound,Potency,"activity change, negative = growth inhibition"
Cc1ccc(S(=O)(=O)CCc2nnc(NC(=O)COc3cccc(C)c3)s2)cc1,"inconclusive [inhibitor, partial curve, poor fit]",
COC(=O)[C@]12CCCCC=C1N(Cc1cccc3ccccc13)C(=O)[C@H](CC(=O)NCc1cccs1)C2,"inconclusive [inhibitor, single point]",
CC(=NNC(=O)c1ccccc1N)c1ccccc1O,active: 5.17 µM,
Cc1nc2c(-c3ccccc3)c(C)nn2c(C)c1CCC(=O)NCc1ccco1,"inconclusive [inhibitor, single point]",
Cc1cc(C)n(C(=O)c2ccc(C)c(S(=O)(=O)N3CCCC3)c2)n1,,inactive: -0.459%
CC1C=CC(C)C(C(=O)O)C1C(=O)O (stereo not drawn),,inactive: -6.62%
NC(Cc1ccc(Cl)cc1)C(=O)O (stereo not drawn),,inactive: 11.5%
Cc1cccc(NC(=O)CSc2nnc(C)c(C)n2)c1,,inactive: 1.1%
O=C(NC(=S)NCc1cccnc1)c1ccccc1[N+](=O)[O-],,inconclusive: -30.3% [inhibitor]
CCc1ccc2occ(CC(=O)Nc3sc4c(c3C(=O)OC)CCC4)c2c1,active: 13 µM,
COc1ccc(N2CC(O)(c3ccc(OC(F)F)cc3)[N+]3=C2CCCC3)cc1 (stereo not drawn),active: 16.4 µM,
COc1ccc(N2C(=O)[C@@H]3[C@H](C2=O)[C@H]2c4ccccc4C=CN2[C@@H]3C(C)=O)cc1,"inconclusive [inhibitor, single point]",
CSC1=NC2(CCN(C(=O)NC3CCCCC3)CC2)N=C1c1ccc(C(C)(C)C)cc1,,inactive: -16.4%
O=C(CCNC(=O)Cn1cnc2ccccc2c1=O)NCCC1=CCCCC1,"inconclusive [inhibitor, single point]",
COc1cccc(CNCCSc2nnnn2C)c1OCc1ccc(Cl)cc1,active: 20.6 µM,
COc1cc(F)ccc1-c1cc(C(=O)NCc2cc(C(F)(F)F)cc(C(F)(F)F)c2)[nH]n1,"inconclusive [inhibitor, single point]",
COc1cccc(NS(=O)(=O)c2ccc(OC)c(OC)c2)c1,,inconclusive: -37% [inhibitor]
O=C(NCCc1cccc(Cl)c1)c1ccc2c(c1)OCO2,,inactive: -16.2%
NC1=NC(=O)/C(=C/c2ccccc2OCC(=O)Nc2ccc(F)cc2)S1,,inactive: -9.05%
CCCN(CCC)CCCNC(=O)c1cn(CC)c2ccc(S(=O)(=O)N3CCc4ccccc4C3)cc2c1=O,active: 20.6 µM,
O=C(Nc1ccc(N2CCN(C(=O)c3ccc(Cl)cc3)CC2)cc1)c1cc2ccccc2o1,"inconclusive [inhibitor, partial curve]",
Cc1ccc(S(=O)(=O)N2C[C@@]3(O)Cn4c(=O)ccc(=O)n4C[C@@]3(OC(=O)NCC3CCCCC3)C2)cc1,"inconclusive [inhibitor, single point]",
COC(=O)[C@H](Cc1ccccc1)NC(=O)N(C)Cc1ccccc1,,inactive: 29.2%
Cn1c(SCC(=O)c2ccccc2)nnc1-c1ccncc1,,inactive: 2.65%
O=C(OCC(=O)N1CCCC1=O)c1cc(S(=O)(=O)N2CCOCC2)ccc1F,,inactive: -19.4%

Compound,Potency,"activity change, negative = growth inhibition"
CC(C)c1ccc(N(CC(=O)Nc2ccc(S(=O)(=O)N3CCOCC3)cc2)S(C)(=O)=O)cc1,"inconclusive [inhibitor, single point]",
Cc1cc(N/N=C/c2cccc(Cl)c2)nc(NCc2ccccc2)n1,active: 8.2 µM,
CCCCN(CCCNC(=O)C1CCN(S(=O)(=O)CC)CC1)c1ccccc1,"inconclusive [inhibitor, partial curve]",
Cc1ccc(Nc2c(-c3ccc(N4CCOCC4)cc3)nc3ncccn23)cc1C,"inconclusive [inhibitor, partial curve]",
Cn1c(=O)c2c(nc(SCc3cccnc3)n2Cc2ccccc2)n(C)c1=O,"inconclusive [inhibitor, single point]",
COc1cc2ccccc2cc1C(=O)N(CCN(C)C)c1nc2c(F)cccc2s1,"inconclusive [inhibitor, single point]",
O=C(Nc1ccc(Nc2ccccc2)cc1)c1c(F)c(F)c(F)c(F)c1F,active: 6.51 µM,
CC(C)OCCCNC(=O)c1ccccc1Oc1ccccc1,"inconclusive [inhibitor, single point]",
CCc1ccc(Cn2nnc(C(=O)Nc3ccc(C)cc3)c2N)cc1,,inactive: -5.66%
CC(C)c1ccc(NC(=O)C2CCCN(S(=O)(=O)c3ccc4[nH]c(=O)ccc4c3)C2)cc1 (stereo not drawn),active: 11.6 µM,
O=C(CNC(=O)c1ccc(OC(F)F)cc1)NCc1ccccn1,,inactive: 3.67%
Cc1[nH]n(-c2ccccc2)c(=O)c1C(c1ccc(O)c([N+](=O)[O-])c1)c1c(C)[nH]n(-c2ccccc2)c1=O,,inactive: -1.84%
CN(C)CCCN1c2ccccc2Sc2ccccc21,active: 16.4 µM,
CCCn1c2ccccc2c2cnn(CC(=O)NC3CCCCC3)c(=O)c21,"inconclusive [inhibitor, partial curve, poor fit]",
CC1(c2ccc(OC(F)F)cc2)NC(=O)N(CC(=O)Nc2ccc(OC(F)F)cc2)C1=O (stereo not drawn),"inconclusive [inhibitor, partial curve]",
COc1cccc(NC(=O)C2(C)CCN2Cc2ccc3ccccc3c2)c1 (stereo not drawn),"inconclusive [inhibitor, single point]",
CCCCn1c2ccc(F)cc2c2nnc(SCCN3CCOCC3)nc21,"inconclusive [inhibitor, single point]",
Cc1ccc(C(=O)N2CCC(C(=O)c3ccc(Cl)cc3)CC2)cc1,"inconclusive [inhibitor, single point]",
COc1cc(-c2c(CCO)sc3ccccc23)cc(OC)c1OC,active: 6.51 µM,
CC(=O)Nc1ccc(NC(=O)c2cc[n+]([O-])cc2)cc1,,inactive: 2.89%
COc1ccc(C(O)Cn2cc([N+](=O)[O-])nc2C)cc1 (stereo not drawn),,inactive: 4.41%
CCOC(=O)c1c(C)c(C)n(Cc2cccc(OC)c2OC)c1C,"inconclusive [inhibitor, partial curve]",
CCOc1ccc(N2C(=O)CC(N3CCN(c4ccccc4F)CC3)C2=O)cc1 (stereo not drawn),"inconclusive [inhibitor, partial curve]",
Cc1ccc(C(=O)N2CCCC(c3nc4c(nnn4Cc4ccccc4)c(=O)[nH]3)C2)cc1 (stereo not drawn),"inconclusive [inhibitor, single point]",
O=C(Nc1ccccc1)Nc1nnc(-c2ccccc2)o1,active: 29.1 µM,

Compound,Potency,"activity change, negative = growth inhibition"
COc1cc(Cl)ccc1OCc1cc(C(=O)NC2CCc3ccccc32)no1 (stereo not drawn),,inactive: -10.3%
O=C(CSc1oc(-c2ccco2)nc1S(=O)(=O)c1ccccc1)c1ccc(Cl)cc1,"inconclusive [inhibitor, single point]",
CCN(c1ccc(C)cc1C)S(=O)(=O)c1nnc(NC(=O)c2ccccc2OC)s1,"inconclusive [inhibitor, single point]",
COc1ccc(CCNC(C(=O)Nc2cc(C)cc(C)c2)c2ccccc2)cc1 (stereo not drawn),"inconclusive [inhibitor, single point]",
CCOC(=O)c1ccc(NC(=O)CC2C(=O)N(c3ccccc3)C(=O)N2C2CCCCC2)cc1 (stereo not drawn),active: 25.9 µM,
COc1ccc(-n2nnnc2C(c2ccccc2OC(F)(F)F)N2CCN(C/C=C/c3ccccc3)CC2)cc1 (stereo not drawn),active: 23.1 µM,
CCNC(=O)CN1C(=O)NC2(CCOc3ccccc32)C1=O (stereo not drawn),,inactive: 12.8%
COc1ccc(/C=C/C(=O)NCCSCc2ccco2)cc1OC,"inconclusive [inhibitor, single point]",
Cn1c(=O)c(NC(=O)c2ccccc2)c2n(c1=S)CCCCC2,"inconclusive [inhibitor, single point]",
O=C(OCc1ccccc1)c1ccc(Br)o1,,inactive: -9.61%
O=C(Nc1ccc(S(=O)(=O)N2CCCCC2)cc1)c1ccc(Cl)nc1,active: 18.4 µM,
Cc1ccc(S(=O)(=O)NCc2ccccc2)cc1C(=O)N1CCCC(C(F)(F)F)C1 (stereo not drawn),"inconclusive [inhibitor, single point]",
CCOC(=O)C1(Cc2ccc(OC)cc2)CCN(C(=O)c2cccc3nccnc23)CC1,,inactive: -14.6%
CCOc1ccccc1N1C(=O)CC(Sc2nccc(C)n2)C1=O (stereo not drawn),"inconclusive [inhibitor, single point]",
COc1ccc2[nH]c(=O)c(CN(CCO)S(=O)(=O)c3ccc4c(c3)OCCO4)cc2c1,"inconclusive [inhibitor, single point]",
CC1(C)Cc2c(cnn2-c2ccccc2)C(NC(=O)CCN2CCCC2=O)C1 (stereo not drawn),,inactive: -15.5%
CC(=O)Nc1cccc(OCC(=O)Nc2ccc(F)cc2)c1,"inconclusive [inhibitor, single point]",
C[C@@H]1CN([C@H](C)CO)S(=O)(=O)c2ccc(Br)cc2O[C@@H]1CN(C)C(=O)CN1CCOCC1,,inactive: 7.06%
CCN1CCN(c2cc3c(cc2F)c(=O)c(S(=O)(=O)c2cc(C)cc(C)c2)cn3CC)CC1,"inconclusive [inhibitor, single point]",
COc1ccc(-n2cc(-c3ccccc3)c3c(NCCc4ccc(OC)c(OC)c4)ncnc32)cc1,active: 23.1 µM,
CCc1ccc(NC(=O)CN(c2ccc(OC)cc2)S(=O)(=O)c2c(C)nn(C)c2C)cc1,"inconclusive [inhibitor, single point]",
CCOc1ccc(-c2nonc2NC(=O)COc2ccccc2)cc1,"inconclusive [inhibitor, single point]",
CCOC(=O)C1CCCN(C(=O)CNC(=O)c2nn(-c3ccc(OC)c(Cl)c3)c(=O)c3ccccc23)C1 (stereo not drawn),"inconclusive [inhibitor, single point]",
